In the supplement of paper PMC3334620:
Over roughly 33,000 sequences, “E-score (-0.5 to 0.5)” has its median near -0.01; the highest 2% begin near 0.26. Some of the results follow.

Biological target: Ste12 (UniProt P13574)
Test: PBM E-score (8-mer binding enrichment) (E-score (-0.5 to 0.5)); higher = stronger / more preferred TF binding; most listed sequences are background and not binding sites
Settings: protein concentration: 200 nM; construct: GST-DNA-binding domain
Procedure, shortened: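 Masliner-normalised scans of fluorescent anti-GST signal were the basis for scoring. That signal came from GST-tagged yeast transcription factors applied at about 100-200 nM to double-stranded universal all-10-mer Agilent arrays on fresh or once-stripped slides. Each ungapped eight-base word, pooled with its reverse complement, received an E-score from the Universal PBM Analysis Suite.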

Sequence | PBM E-score
GGGTTACC | -0.188
AACAGATC | 0.11
GTTGGCTA | 0.107
ACGCGCCC | -0.0509
CGTGCAAC | 0.0201
GTCTTAGA | -0.0535
GCTGCTAA | -0.101
AATACAGG | 0.0997
AGGCTTAT | -0.135
ATAACGGA | 0.145
ATAGCCTA | -0.0275
AGATTCCC | -0.0921
ACGATGGG | -0.0771
CTATAACA | -0.157
CCCCTCCA | 0.246
CGCTCTCC | -0.244
ACATGAAT | 0.09
CCTGGGGC | -0.246
AACTGCTC | -0.22
CATCTGCC | -0.194
CTCCGCAC | -0.172
GCCCTCAC | -0.144
TAATCAGA | 0.0528
CATTTCAC | 0.099
CTGCCGTC | -0.112

Sequence | PBM E-score
GAAATCCA | 0.174
GGTTAATA | 0.0275
CAGCTGGG | -0.0962
CTTCGCTC | -0.224
CTGTTGCC | -0.0857
GACTTTTA | 0.0969
ATAGACCG | -0.17
CTAACGAA | 0.11
GGGTGAAC | -0.0519
CTGTTCGA | 0.0108
AAGTGATT | 0.0453
ATTCCTCC | -0.0519
ATAGCCCG | -0.113
ACGATTAG | -0.0979
GTGTTTAA | 0.155
GCAAAAGA | -0.0961
AGGGACTG | -0.125
ATACGCGG | 0.0476
GATGGTAC | -0.11
ACAACCCC | 0.0635
ATCAGATC | 0.0245
CAATTGTA | -0.131
ATCCAGTC | -0.037
AAGCGGTC | -0.0133
ACGTTCAG | -0.00054

Sequence | PBM E-score
GCGGTACA | -0.0812
AGCACACT | -0.151
AACGAGTA | 0.0916
CGTGGATA | -0.138
ATCAAACC | 0.217
GCATAGCC | -0.244
AGACTACC | -0.179
AATAGGAA | 0.0659
TGCCGAAA | 0.0752
CCGCTATA | -0.0533
AATCACCG | -0.0132
AGAGGTTA | 0.0445
AATTCGAT | 0.141
GTACTCAA | 0.0222
ACGTGGGA | -0.0587
AGGCTATC | -0.011
ACAACTCA | 0.253
CCAGACGG | -0.143
ATTGGAGA | 0.0798
AATTGGAA | 0.132
CGGTGCGA | -0.00226
CGATGCCC | -0.232
AACTCGAT | 0.0663
AAGACCAC | -0.121
CTCATTGA | -0.14

Sequence | PBM E-score
AGGATGGC | -0.196
ACACTCCG | -0.016
CAGAGTGA | -0.0253
CAGTGTGC | -0.187
ATAAGATA | 0.0792
AAACCGTT | 0.00687
GTAGGCGA | -0.243
AGTATAAG | 0.158
CGACAGTC | -0.278
CGAGAGTA | 0.17
AGCAGCTG | -0.0339
CCAGAGAG | -0.096
CGCTGGCC | -0.208
GTAGCCAA | 0.0142
GTCTTTGA | 0.0928
CCACGATC | -0.0417
ACGTTTAT | 0.0324
AGCAGACG | -0.0594
CGCTGCCA | -0.031
TAGGTACA | -0.233
CAACATCA | 0.0676
CCTGCGGA | -0.047
AGGCCAGC | -0.157
GATAACGC | 0.0885
CAGATACA | 0.0012

Sequence | PBM E-score
ACCCCCCC | -0.271
ACCCCGGC | -0.0462
CTCAAGTA | -0.113
ACCAAAAT | 0.254
CATGCATC | 0.0744
CGATAACG | -0.0902
CCCCTGCC | -0.0546
AACAGGGT | 0.029
ATGGATAG | -0.0389
ATAGACAA | -0.00012
AGTTGCGC | -0.0533
TCACATGA | -0.0361
GAATACGA | 0.112
GGGGACAA | 0.0866
AACTACTG | -0.0535
CACGAGTA | -0.0155
AAGTTAGT | -0.0238
ACAGGGTA | -0.0612
GGGGGGGA | -0.298
AAGTAACG | 0.141
GGGGGTAA | 0.017
GGATTGAA | 0.0779
AGGCGTTC | -0.164
ATTCGAGC | -0.143
TATAGACA | -0.0568

Sequence | PBM E-score
GTATGAAA | 0.338
GATGAGGA | -0.072
ATCGCCCA | -0.129
CTGACGTC | -0.0868
GAGAGATC | -0.0454
AATTGGGT | 0.235
TCGATGCA | 0.0454
AAATCGAC | 0.0499
AAACGCTC | 0.0194
CGTAGCAC | -0.026
AGACAAGC | -0.0877
CTTCGGAC | -0.171
TGATACCA | -0.0783
ATCATTGC | -0.039
GCGGCGAC | 0.0909
ACAACCAC | 0.121
CCACCGGA | 0.183
CCTCATAA | 0.0824
AGTTGGTG | -0.0916
ACATGGCT | -0.129
ATGGATTA | -0.176
ACTCTGGG | -0.167
AGCGCTCG | -0.0848
CCTCGCAC | 0.064
TCTGACCA | -0.0404

Sequence | PBM E-score
CTTCTCAC | 0.0653
CGACCCAG | 0.0732
CCCTCGGA | 0.101
CAGGCCGA | 0.124
ACAACGAT | -0.0524
ACACGACA | 0.109
TCCGTAAA | 0.102
GTAGAGCA | -0.216
AGCCGGCG | 0.106
ATCGCTGC | 0.03
ATGCAATG | -4e-05
CCGGGGGA | 0.0425
AGACAGGA | 0.118
GAGGCATC | -0.157
TGCAGCAA | 0.0678
GAAACGCC | 0.288
AGTTTCGG | 0.217
ATTATGGA | 0.135
AAATGGGT | 0.105
CTGATCTC | -0.121
CAAATCTC | 0.0124
GCACAACC | -0.122
CAGTTGCC | 0.0207
GGGGTTTA | 0.00666
ACCCTACT | -0.268

Sequence | PBM E-score
AAGGGGCA | -0.132
CTTCCTTA | -0.0663
CCCTGTGC | 0.0789
GATGTTGA | -0.0544
CAAGCTGA | 0.0548
CCAGTGAG | -0.25
CCTGTCCA | -0.225
AATCGTCC | -0.00603
CCACCGCG | -0.0242
TACGTCGA | 0.0119
TACTCCGA | -0.0128
CTAACATC | 0.0222
ACAAGGCT | -0.224
GCCCGGAA | 0.11
ACGTCCTG | -0.0264
CAGAATAG | 0.111
CTGGGATC | -0.268
TAAAGCCA | -0.0183
TCATGTCA | -0.108
CCAAGTCC | -0.166
AAGGCGCC | -0.105
CATTATAC | 0.171
CTCATTCA | 0.0934
ATGAGCCC | -0.163
GCGTTGGA | -0.11

Sequence | PBM E-score
CCAGCCTC | -0.182
CTTAAGAA | 0.0922
GAGCCTGC | -0.0484
AAACGGAC | 0.149
ATGTCGAG | -0.11
GGTCGAGA | -0.125
ACGATCCG | 0.00957
ATTGCGTG | 0.018
ACCACAAG | -0.0155
CGGTCCGC | -0.00204
TTAGCTAA | -0.0555
ACTACAAA | 0.157
CCAAGAAC | -0.11
AGTTCAAT | -0.0355
CCGCCTAC | -0.104
ACCTAATG | -0.134
GTCCACAA | 0.039
GCACACAC | -0.164
AAGTAATA | 0.0885
TCCTGAGA | 0.0959
AGAGGATC | -0.23
CCCAAAAA | 0.102
TAATCGTA | 0.06
ATCTTTAC | 0.128
CAATACTG | 0.00586

Sequence | PBM E-score
GATTCTGA | 0.0395
CTTGCAGC | -0.116
AACGTAAG | -0.0237
ATCGGATG | 0.145
GCGTACAC | -0.151
AACTGACT | -0.195
ATTAGATC | 0.0593
GCAAGCTA | -0.19
CACCTACA | -0.0138
AGTATGTC | -0.00577
GCCCAAAC | 0.0443
GAAATATC | 0.0344
AAGTCAGA | 0.0896
CACGGTCA | 0.137
AAGCTTGA | -0.0255
ACCTACTC | 0.024
AGCCGGCC | 0.0885
ATAAGCTA | -0.0554
CGCCAGTC | -0.0744
ACTTGCAG | -0.0292
CTTAACCC | -0.217
ATTGCGTC | 0.0435
CACCCAAC | -0.0687
AACTTATG | 0.0251
CGTAATTC | 0.0769

Sequence | PBM E-score
TTGAAAAA | 0.323
AAAGTCTT | 0.0182
ACTCTACT | 0.123
ACGACGAA | -0.0244
AGAGAAGA | -0.0389
CCCCCAGA | -0.226
ACCTTGCA | -0.206
CCGTGATC | 0.00579
ACCAGCGG | -0.0794
GTATGCCA | -0.225
ACTTTCCC | 0.152
CTTGTTTA | 0.0423
AACGCGGT | 0.0965
CAATCTTA | -0.06
TCAACGAA | 0.00866
ATGGCCAG | 0.0154
AGCGAAAA | 0.107
AGGTAACT | -0.0845
CCTCAAGA | -0.0527
AAAGAGAA | 0.0447
CCCTTTCC | -0.117
ACCAACAA | 0.269
ATCAGCCA | -0.0331
TACGGGGA | 0.107
AGGCCATC | -0.00368

Sequence | PBM E-score
AAATGGAC | 0.0323
AGCAGTTC | -0.102
TCAGGTAA | 0.189
CGTTATAA | 0.143
CTTCGCGA | -0.0688
CGCGTAAC | -0.00729
ATTAAAGC | 0.0638
CAGCGCTC | -0.114
TCACTCCA | -0.00159
CGGTCAGA | 0.0408
ATCGCCGA | -0.038
AGTCCCCA | -0.214
AAAAGGGT | 0.0448
TCGGATAA | 0.182
TCTTATAA | 0.201
TACCCGTA | -0.132
CTCCTACC | -0.12
CAGCCTGG | 0.00817
ATATCGGA | 0.0839
GTACGGAA | 0.141
ATATCCGC | 0.0453
AGTTGTTC | 0.0935
CAAAAAGG | 0.0796
CTAATGTC | 0.00771
AGACTGTG | -0.00808

Sequence | PBM E-score
ACGGGCAT | 0.0722
GCTAGAGC | -0.172
GCAGGGAC | -0.134
GAACGCTA | -0.179
GGGCAAAA | 0.2
GTATAGCA | 0.0325
CCTTCCAA | -0.0208
CATAGGCG | -0.0841
TACACCTA | 0.134
CACAACAC | 0.0823
CAGTCCGG | -0.191
ATTGCTCC | -0.0635
CCCTTTTC | 0.163
AGAATCCC | 0.0724
CTCGGGGC | -0.0396
CTCCATTC | 0.0255
CACAGTAC | 0.0938
CTACGGTC | -0.294
AAATCATT | -0.0422
AAAGATTT | 0.137
CATTCGCC | -0.00661
CCTGACCG | -0.112
CGTTATCC | 0.00703
CAACTCTG | 0.105
AACAGACC | 0.0369

Sequence | PBM E-score
CTCGGATC | -0.0575
GCATATAC | -0.0634
ACGCGGTA | -0.0724
GTTCAGTA | -0.0836
ACCTAGCC | -0.201
AGGCTGTG | -0.13
AACCCGGA | 0.11
ATGCCATC | 0.00054
CCGGTGCC | -0.186
AGATACTA | -0.147
AGGCCCTA | -0.2
CACTTGGA | 0.108
AGAGTCAC | -0.268
ACTAGTAA | 0.114
CAGGTAGG | -0.123
GAACAGCC | -0.185
ACATTCGG | 0.129
TGACTACA | -0.0181
AACCATAC | 0.0224
